Experimental data as given in publication PMC4336329 (PLoS ONE, 2015).
The whole screen tested about 310,000 compounds, of which about 14,000 (4.5%) showed an effect of 50% or more. The effect is printed as a negative number. This is one part of the list.

What follows are molecules tested against human ether-à-go-go-related gene (hERG) potassium channel (human, UniProt Q12809) (assay: primary screen, population patch clamp on CHO cells stably expressing hERG).
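Further: peak tail current of the secondary pulse compared with the same well before compound.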

human ether-à-go-go-related gene (hERG) potassium channel, sequence (Q12809 whole entry, looked up): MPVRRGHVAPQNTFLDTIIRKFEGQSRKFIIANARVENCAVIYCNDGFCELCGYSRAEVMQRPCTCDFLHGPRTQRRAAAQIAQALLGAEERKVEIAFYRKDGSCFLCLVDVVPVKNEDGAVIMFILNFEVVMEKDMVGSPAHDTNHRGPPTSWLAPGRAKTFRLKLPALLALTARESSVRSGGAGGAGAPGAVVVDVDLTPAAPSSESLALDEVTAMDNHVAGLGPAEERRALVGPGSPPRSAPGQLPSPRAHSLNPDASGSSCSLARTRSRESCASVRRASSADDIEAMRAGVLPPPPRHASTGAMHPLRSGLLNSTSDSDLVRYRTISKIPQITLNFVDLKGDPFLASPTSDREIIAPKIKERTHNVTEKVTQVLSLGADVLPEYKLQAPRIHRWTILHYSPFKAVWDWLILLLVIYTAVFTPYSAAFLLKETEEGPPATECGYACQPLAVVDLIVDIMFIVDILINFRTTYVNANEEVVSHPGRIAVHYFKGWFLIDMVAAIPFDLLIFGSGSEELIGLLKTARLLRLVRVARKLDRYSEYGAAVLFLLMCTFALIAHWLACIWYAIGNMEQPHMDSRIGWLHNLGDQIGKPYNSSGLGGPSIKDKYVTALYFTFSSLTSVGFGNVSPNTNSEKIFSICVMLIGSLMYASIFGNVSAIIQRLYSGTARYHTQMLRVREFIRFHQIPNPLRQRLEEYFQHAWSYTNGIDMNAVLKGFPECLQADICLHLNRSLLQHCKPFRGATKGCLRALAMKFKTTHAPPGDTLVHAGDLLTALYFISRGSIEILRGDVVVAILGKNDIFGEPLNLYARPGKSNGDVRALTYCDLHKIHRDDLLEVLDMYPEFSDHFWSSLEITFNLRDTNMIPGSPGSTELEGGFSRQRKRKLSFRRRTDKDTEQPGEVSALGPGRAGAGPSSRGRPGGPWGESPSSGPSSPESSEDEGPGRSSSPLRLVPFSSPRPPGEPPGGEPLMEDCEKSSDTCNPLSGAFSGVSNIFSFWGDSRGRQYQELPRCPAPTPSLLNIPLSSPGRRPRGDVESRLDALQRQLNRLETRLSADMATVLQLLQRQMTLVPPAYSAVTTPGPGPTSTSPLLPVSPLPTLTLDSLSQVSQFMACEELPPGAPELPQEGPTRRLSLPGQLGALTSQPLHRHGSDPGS

| Compound | hERG current change (%, negative = inhibition) at 10uM |
| --- | --- |
| CC1CN(C2CC(C)(C)NC(C)(C)C2)CCC1=O (stereo not shown) | 2.16% |
| C[C@H](C(=O)C=[N+]=[N-])N1C(=O)c2ccccc2C1=O | 13.5% |
| CC1=NC(=O)C(N=Nc2cccc(O)c2)N1c1ccccc1 (stereo not shown) | 11.6% |
| CCOC(=O)c1c(N=CN(C)C)c(C#N)n2c1CCC2 | 16.5% |
| COc1ccccc1C(=O)NCC(=O)N/N=C/c1cc(Br)ccc1OCc1ccccc1 | 3.78% |
| O=C(COC(=O)CSc1ccc(Br)cc1)NCc1ccco1 | 3.12% |
| COc1cc(OC)cc(-c2c(C#Cc3ccsc3)c3cc(-c4cccc5[nH]ccc45)ccc3n2C)c1 | -0.172% |
| CCC1(C)Cc2ccccc2C(=O)N1 (stereo not shown) | 20% |
| O=C(NCC1COc2ccccc2O1)c1ccc(-n2cncn2)c([N+](=O)[O-])c1 (stereo not shown) | -45.3% |
| COc1cc(CNc2ccccc2)c([N+](=O)[O-])cc1OC.O=C(O)C(=O)O | -3.72% |
| COC(=O)c1cc(NS(=O)(=O)c2ccc3c(c2)c(=O)n(C)c(=O)n3C)cc(C(=O)OC)c1 | 15.1% |
| Cc1nn(CC(=O)Nc2ccc(N3CCOCC3)cc2)c(C)c1Cl | 10.6% |
| O=C(Cn1nnc(-c2ccc([N+](=O)[O-])cc2)n1)NNC(=O)c1ccccc1 | 15.2% |
| O=C(Nc1ccn(Cc2ccccc2F)n1)c1ccc(COc2ccc(Br)cc2)cc1 | 1.39% |
| CC(C)c1ccc(N(CC(=O)NCC2CCCO2)C(=O)CCC(=O)Nc2nccs2)cc1 (stereo not shown) | -12.6% |
| CCOC(=O)/C=C/[C@H]1CCc2cccc(Cl)c2O1 | 9.23% |
| Cc1cc2sc3nc(=O)n(-c4ccccc4)c(=O)n3c2cc1C | 11.7% |
| CCOC(=O)CSc1nnc(CNC(=O)c2ccc(S(=O)(=O)N(C)C)cc2)n1C | 2.15% |
| CC(=O)c1c(C)[nH]c(C(=O)NCCc2cccc(C)c2)c1C | 2.87% |
| CN(C)CC(C)(C)CN=Cc1c(O)[nH]c2ccccc12 | -7.96% |
| CCOC(=O)c1c(NC(=O)CSc2n[nH]c(N)n2)sc(CC)c1C | 10.7% |
| COc1cccc(N2CCN(C(=O)CCCCCNc3nc(=S)[nH]c4ccccc34)CC2)c1 | -27.2% |
| Cc1nn(-c2ccccc2)c(N)c1C1(O)C(=O)Nc2ccc([N+](=O)[O-])cc21 (stereo not shown) | 7.11% |
| N#C/C(=C\c1cccc(O)c1)c1nc2ccccc2o1 | -3.63% |
| Cl.N=c1sccn1CC(=O)Nc1ccccc1-c1ccccc1 | -2.05% |
| CCCNC(=O)c1ccc(N(Cc2ccccc2)S(C)(=O)=O)cc1 | -10.3% |
| CC(C)Oc1ccc(C2CC(=O)N(Nc3ccc([N+](=O)[O-])cc3[N+](=O)[O-])C2=O)cc1 (stereo not shown) | -15.6% |
| Cc1cc2nc(C3CCCN(C(=S)Nc4ccccc4C)C3)[nH]c2cc1C (stereo not shown) | -0.115% |

| Compound | hERG current change (%, negative = inhibition) at 10uM |
| --- | --- |
| Cc1cc(C)n(-c2nc3c(c(=O)[nH]c(=O)n3C)n2CC(O)COc2ccccc2C)n1 (stereo not shown) | -31.9% |
| Cc1cccc(CCNS(=O)(=O)c2cnc[nH]2)c1 | 4.35% |
| CC(C)Sc1n[nH]c(=O)n1-c1cccc(C(F)(F)F)c1 | 17.1% |
| CCN(CC)C(=O)C1CC(c2ccc(OC)cc2)=NO1 (stereo not shown) | 1.85% |
| CCc1cccc(C)c1NC(=S)N(CCCN1CCN(C)CC1)Cc1cccs1 | -30.9% |
| Cl.N=c1sccn1CC(=O)NCCc1ccc(Cl)cc1Cl | -36% |
| O=C1Nc2ccccc2C1c1ncc(C(F)(F)F)cc1Cl (stereo not shown) | 23.2% |
| CC(=O)Nc1ccc(OCC(=O)NCCc2ccccc2)cc1 | 21.8% |
| C/C=C/c1ccc(OCCCNC2CCCC2)c(OC)c1.O=C(O)C(=O)O | -57.6% |
| Nn1c(SCC(=O)N2CCN(S(=O)(=O)c3ccccc3)CC2)nnc1-c1cccs1 | -10.1% |
| Cc1cc(C)n(-c2nc(-c3cccc(Cl)c3)cs2)n1 | 5.87% |
| COc1ccc([N+](=O)[O-])cc1NC(=O)COC(=O)C1CC1 | 9.71% |
| COc1ccc(/C(C)=N/OCC(=O)N=Nc2c(O)[nH]c3ccc(Br)cc23)cc1 | 9.9% |
| O=C1CN2NC(=S)N(c3ccccc3)C2=CN1c1ccc(Cl)cc1 | 15.2% |
| CC(C)Oc1ccc(CNC(=O)CCCN2C(=O)C(c3ccccc3)Oc3cccnc32)cc1 (stereo not shown) | 18.2% |
| CC1CC(c2ccccc2)=Nc2ccccc2N1 (stereo not shown) | 5.46% |
| CCN(CC)S(=O)(=O)c1ccc(Cl)c(C(=O)Nc2cccnc2)c1 | -55.8% |
| Cc1ccnc2ccc(SC(F)(F)F)cc12 | -0.416% |
| CC(C)COP(=O)(OCC(C)C)C(O)c1ccc(F)cc1 (stereo not shown) | 0.0329% |
| CC(C)(C)C(=O)NC1CCN(C(=O)N2CCCC2)CC1 | 10.2% |
| CC(=O)NC(=S)c1c(N)n(Cc2ccccc2)c(=O)n(C)c1=O | -4.74% |
| Cc1cnc(C(=O)OCC(=O)C23CC4CC(CC(C4)C2)C3)cn1 | -1.92% |
| COc1ccc(NC(=O)c2cccc(N3C(=O)c4cccc([N+](=O)[O-])c4C3=O)c2)cc1 | 9.88% |
| Cc1ccc(NC(=O)COC(=O)CN2C(=O)NC3(CCCC3)C2=O)cc1S(=O)(=O)N(C)C | 9.09% |
| C[C@H](NC(=O)c1cc2cc(Cl)ccc2n1C)C(=O)N1CCC[C@H]1C(=O)O | 13.7% |
| CN(C)C=O.NS(=O)(=O)c1cccc(NC(=O)CSc2nc3nc(-c4cccs4)cc(C(F)(F)F)c3c(=O)[nH]2)c1 | 7.85% |
| CNC(=S)N(Cc1cc2cc(C)cc(C)c2[nH]c1=O)C1CCCC1 | -3.94% |
